Test results taken from PubChem BioAssay AID488969 (Vanderbilt High Throughput Screening Facility, 2010).
Whole data set: some 110,000 compounds, median “z-score” near -0.1, cut for the highest 2% near 2. The list shows a part of the results. Active and inactive are the calls of the source.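 Rule for the calls: active = z-score in the third read window above 3 or below -3; inactive = the rest.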

Molecular target: Metabotropic glutamate receptor 8 (Rattus norvegicus) (UniProt P70579)
Assay: mGluR8 Gi/Go-coupled signaling modulation – cell-based, rat, thallium flux, HTS, primary screen (AID 488969)
Settings: HEK293 rat mGluR8, GIRK (G protein-gated inwardly rectifying potassium channel) thallium flux, FluoZin2; at 10 µM; stronger effect = higher value; submaximal glutamate (EC20) added with thallium

UniProt P70579, sequence (P70579 whole entry, looked up): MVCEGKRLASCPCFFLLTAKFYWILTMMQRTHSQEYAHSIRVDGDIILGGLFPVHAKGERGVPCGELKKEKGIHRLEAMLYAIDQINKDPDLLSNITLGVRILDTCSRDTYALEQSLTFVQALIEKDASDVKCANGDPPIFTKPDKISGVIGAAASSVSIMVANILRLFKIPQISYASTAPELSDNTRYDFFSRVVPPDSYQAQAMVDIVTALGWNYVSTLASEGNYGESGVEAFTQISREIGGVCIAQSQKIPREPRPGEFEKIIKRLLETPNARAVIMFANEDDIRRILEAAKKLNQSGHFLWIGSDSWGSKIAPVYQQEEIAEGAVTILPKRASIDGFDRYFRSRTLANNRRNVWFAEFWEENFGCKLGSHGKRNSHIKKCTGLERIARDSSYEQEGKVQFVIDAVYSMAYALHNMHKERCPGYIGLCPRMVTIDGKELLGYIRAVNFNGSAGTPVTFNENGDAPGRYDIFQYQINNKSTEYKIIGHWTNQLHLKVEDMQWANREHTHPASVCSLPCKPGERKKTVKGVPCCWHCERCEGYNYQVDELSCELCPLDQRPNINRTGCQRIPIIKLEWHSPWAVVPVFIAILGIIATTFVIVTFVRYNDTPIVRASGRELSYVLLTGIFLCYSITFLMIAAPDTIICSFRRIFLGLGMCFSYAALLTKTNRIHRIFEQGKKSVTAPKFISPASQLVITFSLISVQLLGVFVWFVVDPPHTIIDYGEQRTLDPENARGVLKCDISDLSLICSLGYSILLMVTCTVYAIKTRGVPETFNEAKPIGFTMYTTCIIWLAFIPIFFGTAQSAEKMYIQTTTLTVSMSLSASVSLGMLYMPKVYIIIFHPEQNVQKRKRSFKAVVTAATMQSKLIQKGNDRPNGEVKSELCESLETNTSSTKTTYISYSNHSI

| SMILES | z-score |
| --- | --- |
| Cc1nnc(Nc2ccc3c(c2)OCO3)c2ccccc12 | -0.611 |
| Cc1cc(C)n2nc(C(=O)Nc3nccs3)nc2n1 | -0.0873 |
| COc1ccc(Cn2nnnc2C(c2cccs2)N2CCSCC2)cc1 (stereo not given) | 0.0357 |
| Cc1ccc(Nc2nc(N)c([N+](=O)[O-])c(N3CCOCC3)n2)cc1 | -0.21 |
| CCN(CC)S(=O)(=O)c1ccc(NCC2COc3ccccc3O2)c([N+](=O)[O-])c1 (stereo not given) | -0.00635 |
| O=C(Cc1ccccc1)Nc1nnc(-c2cccc([N+](=O)[O-])c2)s1 | 0.0139 |
| Cc1ccc(NC(=O)c2cc(-n3cnnc3)ccc2Cl)c(C)c1 | -0.139 |
| Cc1ccc(S(=O)(=O)n2cnc3cc([N+](=O)[O-])ccc32)c(C)c1C | -0.143 |
| CC(C)c1ccc(NCCC(=O)c2ccc(Br)cc2)cc1 | -0.0651 |
| Cc1cc(C)cc(NC(=O)C2CCCN(S(=O)(=O)c3cnc[nH]3)C2)c1 (stereo not given) | 0.76 |
| O=C(NC1(C(F)(F)F)C(=O)Nc2c1c(=O)[nH]c(=O)n2Cc1ccco1)C1CCCCC1 (stereo not given) | -0.645 |
| CCOc1ccc(-c2nnn(CC(=O)N3CCCC3)n2)cc1OCC | 0.874 |
| COCCn1c(Cc2ccccc2)nnc1SCC(=O)Nc1cc(C)on1 | 0.197 |
| CC(=O)NC1(c2cccc(F)c2)CCN(CC(=O)NC(C)C)CC1 | 0.0156 |
| CCOC(=O)c1[nH]c(C)c(C(=O)OCC(=O)NC(=O)NC(C)(C)C)c1C | 0.435 |
| COCCCNC(=O)c1ccc(N2CCCC2)c(NS(=O)(=O)c2ccc(C)cc2)c1 | 0.547 |
| C=CCc1ccc(OCCOc2ccc(/C=N/n3cnnc3)cc2OCC)c(OC)c1 | 0.211 |
| COc1ccc(OC)c(C(=O)CSc2nnc(-c3cccs3)o2)c1 | -0.111 |
| CCOc1ccc(C(O)c2nccn2C)cc1 (stereo not given) | -0.0577 |
| O=C(OCc1csc(Nc2ccccc2)n1)c1ccc(Cl)cc1 | 0.122 |
| CCc1nnc(NC(=O)[C@@H](NC(=O)c2cccc(C)c2)C(C)C)s1 | -0.2 |
| Cc1cc(C(C#N)c2ccccc2)n2ncnc2n1 (stereo not given) | -0.354 |

| SMILES | z-score |
| --- | --- |
| CC(OC(=O)Cc1coc2ccc3ccccc3c12)C(=O)Nc1ncc(Cl)cc1Cl (stereo not given) | -0.092 |
| Cc1nn(C(C)C(=O)NNC(=S)Nc2ccc(Cl)cc2)c(C)c1[N+](=O)[O-] (stereo not given) | -0.802 |
| CC(C)(C)c1ccc(C(=O)Oc2ccc3c(c2)OCC3=O)cc1 | -0.0889 |
| COc1ccc(C(=O)Nn2c(C3CCC3)nc3ccccc3c2=O)c(OC)c1 | 0.565 |
| O=C(COc1ccc(Br)cc1)N1CCOCC1 | 0.263 |
| CCOC(=O)c1c(C)n(C)c2ccc(OC)c(NC(=O)CN3CCN(C(=O)c4ccco4)CC3)c12 | 0.582 |
| COc1ccc(-c2cc(-c3ccc(OC)c(OC)c3)n[nH]2)c(O)c1 | -0.365 |
| O=C(NCc1ccc2c(c1)OCO2)C1CCN(S(=O)(=O)c2ccc(Br)s2)CC1 | -0.0496 |
| Clc1ccccc1CN(Cc1ccco1)Cc1nnnn1C1CCCC1 | 0.401 |
| Clc1ccc2c(c1)C(C1=NCCN1)c1ccccc1CS2 (stereo not given) | 0.865 |
| CN1CCN(C(=O)c2ccccc2N(Cc2ccccc2)S(C)(=O)=O)CC1 | 0.174 |
| O=C(CN1C(=O)NC2(CCCCCCC2)C1=O)NCc1ccc2c(c1)OCO2 | -0.128 |
| Cc1ccc(S(=O)(=O)Cn2nnnc2C(C(C)C)N2CCN(Cc3ccco3)CC2)cc1 (stereo not given) | -0.429 |
| COc1ccc(NC(=S)NNC(=O)C(C)n2nc(C)c([N+](=O)[O-])c2C)cc1 (stereo not given) | -0.173 |
| COCc1ccccc1Cn1cnc2c1c(=O)n(C)c(=O)n2C | -0.16 |
| COc1cccc(C(=O)Nc2cc([N+](=O)[O-])ccc2N2CCN(C)CC2)c1 | -0.261 |
| Cc1ccccc1SCC(=O)Nc1cccc(C#N)c1 | -0.026 |
| CC(C)CCn1nnnc1C(c1ccc(F)cc1)N1CCN(C(=O)c2ccco2)CC1 (stereo not given) | 0.229 |
| CCOC(=O)CCCn1ncn2c(cc3occc32)c1=O | 0.0743 |
| CCOc1cccc(CNCCO)c1OCc1ccc(Cl)cc1Cl | 0.93 |
| Cc1cccc(-n2ncc3c(N4CCCc5ccccc54)ncnc32)c1 | -0.348 |
| Cc1ccc(/C=C/C2=NN(Cc3ccc(Cl)c(Cl)c3)C(=O)CC2)cc1 | -0.176 |

| SMILES | z-score |
| --- | --- |
| COC(=O)Nc1ccc(S(=O)(=O)Nc2ccc(C)cc2)cc1 | 0.0148 |
| COc1ccc(C)cc1NS(=O)(=O)c1ccc(NS(=O)(=O)c2ccc(NC(C)=O)cc2)cc1 | -0.162 |
| CCN(c1ccccc1)S(=O)(=O)c1ccc(Cl)c(C(=O)OCC(=O)c2[nH]c(C)c(C(C)=O)c2C)c1 | -0.83 |
| C=CCn1c(=O)c2c(nc3n2CCN3c2cccc(Cl)c2C)n(C)c1=O | -0.977 |
| S=c1[nH]nc(-c2ccncc2)n1/N=C/c1ccccc1 | -0.00784 |
| N#Cc1nc(-c2ccco2)oc1NCc1cccnc1 | -0.971 |
| C/C(Cn1cnc([N+](=O)[O-])n1)=N\NC(=O)c1cccnc1 | 1 |
| O=C(Nc1ccccn1)c1ccc(Br)c(S(=O)(=O)N2CCCCC2)c1 | -0.7 |
| O=C(NN1C(=O)c2ccc3c4c(ccc(c24)C1=O)CC3)c1ccc(Br)cc1 | 0.0577 |
| CCOc1ccc(NC(=O)COC(=O)Cn2cnnn2)cc1OCC | -0.0611 |
| CCC(C)NC(=O)c1ccccc1NC(=O)c1ccccc1N(C)S(C)(=O)=O (stereo not given) | -0.269 |
| CCOC(=O)N1CCC(N(C(=O)Nc2ccccc2)C(C)CC)CC1 (stereo not given) | 0.0228 |
| O=C(Nc1ccccc1N1CCOCC1)c1cccc([N+](=O)[O-])c1 | -0.0219 |
| O=C(c1cc(C2CC2)on1)N1CCOCC1 | -0.341 |
| CC1CCN(C(=O)Nc2cccc(NC(=O)N3CCC(C)CC3)c2)CC1 | 1.36 |
| N#Cc1ccccc1CSc1nc(N2CCCCC2)nc(N2CCCCC2)n1 | -0.0404 |
| COCCn1nc2cc(C(=O)NCC34CC5CC(CC(C5)C3)C4)ccc2c1OC | -0.188 |
| Cc1cccc(NC(=O)NC(C)CCc2ccccc2)c1 (stereo not given) | active: 4.17 |
| CC(C)n1cc(NC(=O)c2cc(-c3ccccc3)on2)cn1 | active: 16.8 |
| Nc1ccc(Oc2ccc3nc(-c4ccccc4)c(-c4ccccc4)nc3c2)cc1 | -0.244 |
| O=C(CCc1ccccc1)Nc1ccc2c(c1)OCCO2 | -0.0648 |
| CCCCn1nc(C(=O)N2CCc3ccccc32)c2ccccc2c1=O | -0.297 |

| SMILES | z-score |
| --- | --- |
| COc1ccc(-n2nc3c(c2NC(=O)c2c(F)cccc2Cl)CS(=O)C3)cc1 (stereo not given) | -0.143 |
| CN(C)c1nc2ccccc2c(N)c1-c1ccccc1 | active: 3.06 |
| Cc1[nH]c(-c2ccco2)nc1C(=O)O | -0.474 |
| CCn1nc2cc(C(=O)NCCc3cccs3)ccc2c1OC | -0.218 |
| Cc1ccccc1CSc1nnc(-c2ccco2)n1Cc1ccco1 | -1.94 |
| COc1ccc(S(=O)(=O)N(C(=O)c2ccco2)c2cc3sc(=O)oc3c3ccccc23)cc1 | -0.202 |
| CCC(C)c1ccc(NC(=O)C2CC2)cc1 (stereo not given) | 0.353 |
| CCN1CCN(C(=O)c2ccccc2N(Cc2ccccc2)S(=O)(=O)c2ccc(C)cc2)CC1 | 0.407 |
| N#CC1=C(N)OC2=C(C(=O)CCC2)C1c1ccsc1 (stereo not given) | 0.481 |
| COc1ccc(-c2nc(CSCC(=O)NCc3ccco3)c(C)o2)cc1 | -1.17 |
| N#C/C(=C\c1ccc(OCc2ccc(C(=O)O)cc2)cc1)C(=O)N1CCOCC1 | -0.463 |
| COC(=O)c1ccc(C)c(NS(=O)(=O)c2ccc(C)c([N+](=O)[O-])c2)c1 | 0.382 |
| COc1ccc(C2=NN(C(=S)Nc3ccccc3)C(c3ccccc3)C2)cc1 (stereo not given) | -0.177 |
| Cc1ccccc1C1CC(c2ccc(Br)cc2)Nc2nc(N)nn21 (stereo not given) | 0.803 |
| O=c1cc(N2CCCCC2)c(-c2ccccc2)nn1Cc1ccc(Cl)cc1Cl | 0.0967 |
| CCCc1nn(C)c(C(=O)Nc2cccc3ccccc23)c1Cl | -0.306 |
| N#CC1=C(N)Nc2nc3ccccc3n2C1c1ccc(F)cc1 (stereo not given) | -0.0445 |
| CCOc1ccccc1NC(=O)CSc1nnc(Cc2cccn2C)n1-c1ccc(F)cc1 | -0.87 |
| CCN(CC)S(=O)(=O)c1cc(C(=O)OCC(=O)Nc2c(F)cccc2F)ccc1F | -0.74 |
| CCCCC(=O)Nc1cccc(NC(=O)c2ccc(Br)o2)c1 | -0.493 |
| Cn1c(=O)n(Cc2ccccc2)c(=O)c2c1nc(NCC1CCCO1)n2Cc1ccccc1 (stereo not given) | -0.202 |
| CCC(=O)NCCc1nc2ccccc2n1CC | 0.0557 |

| SMILES | z-score |
| --- | --- |
| COc1ccc(-n2c(N)c(Br)c(=O)[nH]c2=O)cc1 | 0.015 |
| Nn1c(SCC(=O)Nc2ccccc2)nnc1-c1cccnc1 | 1.78 |
| O=C(COC(=O)/C=C/c1ccccc1)NCCC1=CCCCC1 | -0.391 |
| O=C(OCc1ccco1)c1ccc(S(=O)(=O)N2CCCCC2)cc1 | -0.449 |
| CCOC(=O)C1=C(O)CCn2c1nc1ccccc12 | -0.633 |
| CCOc1[nH]n(-c2ccccc2)c(=O)c1C=Nc1ccc(Cl)cc1 | 0.655 |
| CC(=O)Nc1ccc(Br)cc1C(=O)C(=O)O | 0.0606 |
| Cc1nc2c(C(=O)N3CCN(C)CC3)cnn2c(C)c1Cc1ccc(Cl)cc1 | -0.0698 |
| COc1ccc(-n2nc(C(=O)NCC(=O)NCc3ccc(F)cc3)c3ccccc3c2=O)c(OC)c1 | -0.163 |
| COc1ccc(NCc2nnc(SCC(=O)NCc3ccccc3)n2-c2ccccc2OC)cc1 | -0.511 |
| CCCOc1ccccc1C1CC(=O)Nc2cc3c(cc21)OCCO3 (stereo not given) | -0.0266 |
| Cc1ccc(C(=O)Nc2cccc(C(=O)O)c2)cc1 | -1.09 |
| Cc1ccccc1C(=O)NNC(=S)NC(=O)c1ccc(Cl)cc1Cl | active: 4.35 |
| O=C(Nc1cccnc1)c1cnn2cccnc12 | 0.0818 |
| CCC(=O)Nc1cccc(-n2nnnc2SCC(=O)c2ccc(C)c(C)c2)c1 | 0.0184 |
| CNC(=O)CN(c1ccc(C(C)C)cc1)S(C)(=O)=O | -0.184 |
| CC(=O)Nc1nonc1-c1nc2ccccc2n1Cc1ccccc1 | 0.0193 |
| CCOC(=O)c1ccc(Nc2nc(C(=O)OCC)nc3ccccc23)cc1 | -0.69 |
| COc1ccc(OCCSc2ncn[nH]2)cc1 | 0.0619 |
| O=C(CNS(=O)(=O)c1ccccc1)NCC(=O)OCc1ccc(C(=O)c2ccccc2)cc1 | -0.608 |
| O=C(O)C1CC(c2cccc(Br)c2)=NO1 (stereo not given) | -0.0142 |
| O=C(Nc1ccccc1)c1ccncc1 | -0.109 |
